Results on 34 variants are retold here after the RNAGym collection of RNA variant scans (doi:10.1093/nar/gkz1192).

Read counts are not given, so values of variants with three or more changes are uncertain.

First the molecules themselves.
B1: CPEB3 Ribozyme (parent)
chain: UAACAGGGGGCCACAGCAGAAGCGUUCACGUCGCAGCCCCUGUCAGAUUCUGGUGAAUCUGCGAAUUCUGCUGUAUAUCUC

The variants in this series derive from B1. The experiment in a line: self-cleavage, relative activity (ratio to wild type); higher = more cleavage; in vitro, sequencing. In a few lines:
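After error-prone PCR and barcoding, CPEB3 ribozyme mutant libraries were transcribed with T7 RNA polymerase at 37°C for 5 hours, then given 15 min with DNase I before an EDTA stop, and they cleaved during both steps. Reverse transcription with template switching preceded Illumina sequencing. Relative activity divides a variant's cleaved/total read fraction by the unmutated ribozyme's. At least 5 reads were required per variant, and three batches were averaged.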
Consider UAACAGGGGGCCACAACAGAAGCGCUCACGUCGCAGCCCCUGCCAGAUUCUGGUGAAUCUGCGAAUUCUGCUGUAUUUCUC [G16A U25C U43C A77U], for which the self-cleavage was 0.04.

On to UAACAGGGGGCCACUGCAGAAGCGUUCACGUCGCAGCCCCUGUCAGAUUCUGGUGAAUCUGCGAAUUCUGCUGCUUAUCCC [A15U U74C A75U U80C], for which the self-cleavage stood at 1.15.

In the case of UAACAGGGGGCCACACCAGAAGCGUUCGCGUCGCAGCCCCUGUCUGAUUCUGGUGAAUCUGCGAAUUCUGCUGUAUAUCUC [G16C A28G A45U], the self-cleavage was 0.27.

Consider UAACAGGGGGCCACUGCAGAAGCGUUCACGUCGCAGCCCCUGUCAGAUUCUGGUGAAUCAGCAUAUUCUGCUGUAUACCUC [A15U U60A G63A A64U U78C], for which the self-cleavage came to 0.12.

UAACAGGGGGCCACUGCAGAAGCGUUCACGUCGCAGCCCCUGUCAGAUUCUGGUGAAUCUGCGAAUUCUGCACUAUAUCUC [A15U U72A G73C]: the self-cleavage was determined as 1.28.

For the variant UAACAGGGGGCCACUGCAGAAGCGUUCACGUCGCAGCCCCUGUCAGAUUCUGGUGAAUCUGCGAAUUCUGCUGCAUACCUC [A15U U74C U78C], the self-cleavage turned out to be 1.04.

With UAACAGGGGGCCACUGCAGAAGCGUUCACGUCGCAGCCCCUGUCAGAUUCUGGCGAAUCCGCGAAUUCUGCUGUAUAUCUC [A15U U54C U60C], the self-cleavage was determined as 0.19.

As for UAACAGGGGGCCACUGCAGAAGCGUUCACGUCGCAGCCCCUGUCAGAUCCUGGUGAAUCUGCGAAUUCUGCUGUAUAUCAC [A15U U49C U80A], the self-cleavage amounted to 0.11.

Consider UAACAGGGGGCCACUGCAGAAGCGUUCACGUCGCAGCCCCUGUCAGAAUCUGGUGGGUCUGCGAAUUCUGCUGUAUAUCCC [A15U U48A A56G A57G U80C], for which the self-cleavage was determined as 0.11.

Turning to UAACAGGGGGCCACACCAGGAGCGUUCACGUCGCAGCCCCUGUCAGAUACUGGUGAAUCUGCGAAUUCUGCUGUAUAUCUC [G16C A20G U49A], the self-cleavage was determined as 0.08.

Take UAACAGGGGGCCACUGCAGAAGCGUUCACGUCGCAGCCCCUGUCAGAUUCUGGUGAAUCCGCGAAUUCUGCUGCAUAUCUC [A15U U60C U74C]: the self-cleavage worked out at 0.31.

UAACAGGGGGCCACUGCAGAAGCGUUCACGUCGCAGCCCCAGUCAGAUUCUGGUGGAUCUGCGCAUUCUGCUGUAUUUCCC [A15U U41A A56G A64C A77U U80C]: the self-cleavage was 0.06.

Take UAACAGGGGGCCACUGCAGAAGCGUUCACGUCGCAGCCCCUGUCAGAUUCCGGUGAGUCUGCGAAUUCUGCUGUACAUCUC [A15U U51C A57G U76C]: the self-cleavage came to 0.5.

In the case of UAACAGGGGGCCACAACAGACGCGUUCACGUCGCAGCCCCUGUCAGAUUCUGGAGACUCUGCGGAUUCUGCUGUAUAUCUC [G16A A21C U54A A57C A64G], the self-cleavage was found to be 0.03.

Regarding UAACAGGGGGCCACAACAGAAGCGUUCACGUCGCAGCCCCUGUCAGACUCUGGUGAUUCUGCGAAUCCUGCUGUAUAUCUC [G16A U48C A57U U67C], the self-cleavage was determined as 0.11.

Regarding UAACAGGGGGCCACUGCAGAAGCGUUCACGUCGCAGCCCCCGCCAGAUUCUGGUGAAUCUGCGAAUUCUGCUGUAUAUCUC [A15U U41C U43C], the self-cleavage worked out at 0.12.

Regarding UAACAGGGGGCCACUGCAGAAGCGUUCACGUCGCAGCCCCCGACAGAUUCUGGUGAAUCUGCGAAUUCUGCUGUAUAUCUC [A15U U41C U43A], the self-cleavage was found to be 0.49.

UAACAGGGGGCCACUGCAGAAGCGUUCACGUCGCAGCCCCUGCCAGAUUCUGGUGAAACCGCGAAUUCUGCUGUAUAUCUC [A15U U43C U58A U60C]: the self-cleavage is 0.12.

For the variant UAACAGGGGGCCACACCAGAGGCGUUCUCGUCGCAGCCCCUUUCAGAUUCUGGAGAAUCUACGAAUUCUGCUGUAUAUCUC [G16C A21G A28U G42U U54A G61A], the self-cleavage was found to be 0.13.

In the case of UAACAGGGGGCCACAACAGAAGCGUUCACGUCGCAGCCCCUGUCAGAUUCUGGUGAAUCUGCGAGUUCCGCUGUAUAUUUC [G16A A65G U69C C79U], the self-cleavage amounted to 0.08.

With UAACAGGGGGCCACUGCAGAAGCGUUCACGUCGCAGCCCCAGUCAGAUUCUUGUGAAUCUGCGAAUUCUGCUGUAUAUCUC [A15U U41A G52U], the self-cleavage is 0.19.

Turning to UAACAGGGGGCCACUGCAGAAGCGUUCACGCCGCAGCCCCCGUCAGAUUCUGGUGAAUCUGCGAAUUCGGCUGUAUAUCUC [A15U U31C U41C U69G], the self-cleavage amounted to 0.17.

For the variant UAACAGGGGGCCACUGCAGAAGCGUUCACGUCGCAGCCCCUGUCAGAUUCUGGAGAAUCUGCGAAUUCUGCUGUACAUCCC [A15U U54A U76C U80C], the self-cleavage stood at 1.14.

As to UAACAGGGGGCCACUGCAGAAGCGUUCACGUCGCAGCCCCUGUCAGAUUCUGGUGAAUCUGCGAAUACUGCGGCAUAUCCC [A15U U67A U72G U74C U80C], the self-cleavage came out at 0.08.

In the case of UAACAGGGGGCCACAACAGAAGCGUUCACGUCGCAGCCCCUGUUAGAUUCUGGUGAACCUGCGAAUACUGCUGUAUAUCUC [G16A C44U U58C U67A], the self-cleavage stood at 0.11.

For UAACAGGGGGCCACUGCAGAAGCGUUCACGUCGCAGCCCCUGUCAGAUUCUGGUGAAUCUGCGAAUCCUGCUGUAUACCUC [A15U U67C U78C], the self-cleavage was 0.11.

For UAACAGGGGGCCACUGCAGAAGCGUUCACGUCGCAGCCCCUGUCAGAUUCUGGCGAAUCUGCGAAUACUGCUGUAUAUCUC [A15U U54C U67A], the self-cleavage is 0.19.

Take UAACAGGGGGCCACUGCAGAAGCGUUCACGUCGCAGCCCCUGUCAGAUUCUGGAGGAUCUGCGAAUUCUGCUGUAUAUCCC [A15U U54A A56G U80C]: the self-cleavage was 0.56.

UAACAGGGGGCCACUGCAGAAGCGUUCACGUCGCAGCCCCAGUCAGAUUCUGGUGAAUCUGCGGGUUCUGCUGUAUAUCUC [A15U U41A A64G A65G]: the self-cleavage was determined as 0.16.

Take UAACAGGGGGCCACUGCAGAAGCGUUCACGUCGCAGCCCCUGCCAAAUUCUGGUGAAUCUGCGAAUACUGCCGUAUAUCCC [A15U U43C G46A U67A U72C U80C]: the self-cleavage was 0.16.

With UAACAGGGGGCCACUGCAGAAGCGUUCACGUCGCAGCCCCUGUCAGAUUCUGGUGAAUCUGCGAAUUCUGCUGUAUACCCC [A15U U78C U80C], the self-cleavage stood at 1.09.

Take UAACAGGGGGCCACUGCAGAAGCGUUCACGUCGCAGCCCCUGUCAGAUUCAGGUGAAUCUGCGAAAACUGCUGUAUAUCUC [A15U U51A U66A U67A]: the self-cleavage turned out to be 0.19.

For UAACAGGGGGCCACUGCAGAAGCGUUCACGUCGCAGCCCCUGUCAGAUUCUGGUGAAUCUGCGAAUUCUGCUGUAUAACCC [A15U U78A U80C], the self-cleavage was determined as 0.74.

As to UAACAGGGGGCCACAACUGAAGCGUUCACGUCGCUGCCCCUGUCAGAUUCUGGUGAAUCUGCGAAUUCAGCUGUAUAUCUC [G16A A18U A35U U69A], the self-cleavage came out at 0.71.
